# Reference: the supplement of paper PMC4604168 (melanoma cell lines)
# Some of the results follow. Repeats are few or missing, and single values can be far off.
# How the values were obtained:
# Experiment in all cases: cell count relative to DMSO control; melanoma cells; higher = more viable cells
# Conditions in all cases: library dose: low library concentration; 72 h
# MZ2-MEL = tested on: MZ2-MEL
# MeWo = tested on: MeWo
# RPMI7951 = tested on: RPMI7951
# RVH-421 = tested on: RVH-421
# SkMel28 = tested on: SkMel28
# SkMel2 = tested on: SkMel2
# SkMel30 = tested on: SkMel30
# UACC62 = tested on: UACC62
# 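Note: cell number obtained by counting DAPI-stained nuclei in high-throughput microscope images with image analysis software, screen run in 1,536-well plates.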
Structure (SMILES),cell count (MZ2-MEL) [%],cell count (MeWo) [%],cell count (RPMI7951) [%],cell count (RVH-421) [%],cell count (SkMel28) [%],cell count (SkMel2) [%],cell count (SkMel30) [%],cell count (UACC62) [%]
"CS(=O)(=O)c1ccc(C(=O)Nc2ccc(Cl)c(-c3ccccn3)c2)c(Cl)c1 [vismodegib] + Clc1ccc(Nc2nnc(Cc3ccncc3)c3ccccc23)cc1 [vatalanib] (first compound 1 µM, partner dose 2 µM)",95.3,81.6,85,115,105,90.6,94.2,95.7
"CN(c1ncccc1CNc1nc(Nc2ccc3c(c2)CC(=O)N3)ncc1C(F)(F)F)S(C)(=O)=O + COc1ccc(Cl)c(Nc2nc3ccccc3nc2NS(=O)(=O)c2cccc(NC(=O)C(C)(C)N)c2)c1 [XL147] (first compound 0.08 µM, partner dose 0.8 µM)",89.5,98.6,61.5,92.4,81.4,87.6,93.2,64.5
"CS(=O)(=O)c1ccc(C(=O)Nc2ccc(Cl)c(-c3ccccn3)c2)c(Cl)c1 [vismodegib] + C=C(c1ccc(C(=O)O)cc1)c1cc2c(cc1C)C(C)(C)CCC2(C)C [Bexarotene] (first compound 1 µM, partner dose 2 µM)",99.7,96.9,82.6,111,77,92.7,92.3,87.4
"CS(=O)(=O)c1ccc(C(=O)Nc2ccc(Cl)c(-c3ccccn3)c2)c(Cl)c1 [vismodegib] + CN(c1ncccc1CNc1nc(Nc2ccc3c(c2)CC(=O)N3)ncc1C(F)(F)F)S(C)(=O)=O [PF562271] (first compound 1 µM, partner dose 0.08 µM)",101,102,88.4,93.4,97.1,92.8,114,77.1
"CS(=O)(=O)c1ccc(C(=O)Nc2ccc(Cl)c(-c3ccccn3)c2)c(Cl)c1 [vismodegib] + OCc1c[nH]c2ccccc12 [Indole-3-carbinol] (first compound 1 µM, partner dose 0.8 µM)",93.3,103,106,108,93.6,110,86.8,88.3
"CS(=O)(=O)c1ccc(C(=O)Nc2ccc(Cl)c(-c3ccccn3)c2)c(Cl)c1 [vismodegib] + NC1(c2ccc(-c3nc4ccn5c(=O)[nH]nc5c4cc3-c3ccccc3)cc2)CCC1 [MK2206] (first compound 1 µM, partner dose 0.4 µM)",101,82,99.4,87,80.9,91,78.8,85.4
"CN(c1ncccc1CNc1nc(Nc2ccc3c(c2)CC(=O)N3)ncc1C(F)(F)F)S(C)(=O)=O + CC(C)C[C@H](NC(=O)[C@H](Cc1ccccc1)NC(=O)c1cnccn1)B(O)O [Bortezomib] (first compound 0.08 µM, partner dose 0.001 µM)",80.2,90,66,70.3,83.8,89.1,85.9,70.4
"C=C(c1ccc(C(=O)O)cc1)c1cc2c(cc1C)C(C)(C)CCC2(C)C [Bexarotene] + Cc1nc(Nc2ncc(C(=O)Nc3c(C)cccc3Cl)s2)cc(N2CCN(CCO)CC2)n1 [dasatanib] (first compound 2 µM, partner dose 0.004 µM)",84.1,98.6,65.7,76.8,57.8,99.1,102,82.1
"C=C(c1ccc(C(=O)O)cc1)c1cc2c(cc1C)C(C)(C)CCC2(C)C [Bexarotene] + OCc1c[nH]c2ccccc12 [Indole-3-carbinol] (first compound 2 µM, partner dose 0.8 µM)",88.9,83,74.7,89.8,80.4,90.3,108,81.5
"CN(c1ncccc1CNc1nc(Nc2ccc3c(c2)CC(=O)N3)ncc1C(F)(F)F)S(C)(=O)=O + C=CCNC1=C2C[C@@H](C)C[C@H](OC)[C@H](O)[C@@H](C)/C=C(\C)[C@H](OC(N)=O)[C@@H](OC)/C=C\C=C(/C)C(=O)NC(=CC1=O)C2=O [Tanespimycin] (first compound 0.08 µM, partner dose 0.002 µM)",90.3,95.9,75.2,81,84.3,82,104,85.5
"CN(c1ncccc1CNc1nc(Nc2ccc3c(c2)CC(=O)N3)ncc1C(F)(F)F)S(C)(=O)=O + C=C(c1ccc(C(=O)O)cc1)c1cc2c(cc1C)C(C)(C)CCC2(C)C [Bexarotene] (first compound 0.08 µM, partner dose 2 µM)",81.6,84.6,53.6,96.2,50.1,69.9,110,83.6
"NC1(c2ccc(-c3nc4ccn5c(=O)[nH]nc5c4cc3-c3ccccc3)cc2)CCC1 + Clc1ccc(Nc2nnc(Cc3ccncc3)c3ccccc23)cc1 [vatalanib] (first compound 0.4 µM, partner dose 2 µM)",89.8,64.6,91.6,79.5,77.6,78,61.9,61.7
"CN(c1ncccc1CNc1nc(Nc2ccc3c(c2)CC(=O)N3)ncc1C(F)(F)F)S(C)(=O)=O + C[C@@H](Oc1cc(-c2cnn(C3CCNCC3)c2)cnc1N)c1c(Cl)ccc(F)c1Cl [Crizotinib] (first compound 0.08 µM, partner dose 0.2 µM)",92.7,102,88.7,124,88.9,83.7,105,80.2
"CCCS(=O)(=O)Nc1ccc(F)c(C(=O)c2c[nH]c3ncc(Cl)cc23)c1F + COc1ccc(Cl)c(Nc2nc3ccccc3nc2NS(=O)(=O)c2cccc(NC(=O)C(C)(C)N)c2)c1 [XL147] (first compound 0.08 µM, partner dose 0.8 µM)",83.4,89.4,118,88.3,68.8,88.6,92.9,64
"C=C(c1ccc(C(=O)O)cc1)c1cc2c(cc1C)C(C)(C)CCC2(C)C [Bexarotene] + C[C@]1(c2nc3c(C(N)=O)cccc3[nH]2)CCCN1 [Veliparib] (first compound 2 µM, partner dose 1.4 µM)",97.5,77.8,80.5,87.8,88.5,92.4,80.8,79
"CN(c1ncccc1CNc1nc(Nc2ccc3c(c2)CC(=O)N3)ncc1C(F)(F)F)S(C)(=O)=O + Cn1nnc2c(C(N)=O)ncn2c1=O [temozolomide] (first compound 0.08 µM, partner dose 2 µM)",89.6,94.3,76.7,98.6,83.1,75.4,86,67.6
"CN(c1ncccc1CNc1nc(Nc2ccc3c(c2)CC(=O)N3)ncc1C(F)(F)F)S(C)(=O)=O + O=C(O)c1ccc2c(c1)nc(Nc1cccc(Cl)c1)c1ccncc12 [CX4945] (first compound 0.08 µM, partner dose 0.4 µM)",84,94.3,72.2,116,63.4,78.6,90.8,93.5
"NC1(c2ccc(-c3nc4ccn5c(=O)[nH]nc5c4cc3-c3ccccc3)cc2)CCC1 + Cn1nnc2c(C(N)=O)ncn2c1=O [temozolomide] (first compound 0.4 µM, partner dose 2 µM)",90.8,76.9,87.6,110,59.7,90,75.3,69.7
"NC1(c2ccc(-c3nc4ccn5c(=O)[nH]nc5c4cc3-c3ccccc3)cc2)CCC1 + Nc1ncn([C@H]2C[C@H](O)[C@@H](CO)O2)c(=O)n1 [decitabine] (first compound 0.4 µM, partner dose 0.1 µM)",75.1,82.1,85,77.2,71.5,84.6,91.7,62
"CS(=O)(=O)c1ccc(C(=O)Nc2ccc(Cl)c(-c3ccccn3)c2)c(Cl)c1 [vismodegib] + Cn1c(Nc2ccc(C(F)(F)F)cc2)nc2cc(Oc3ccnc(-c4ncc(C(F)(F)F)[nH]4)c3)ccc21 [CHIR265] (first compound 1 µM, partner dose 0.08 µM)",89.1,56,74.4,69.4,63.5,94.6,61.3,56.2
"NC1(c2ccc(-c3nc4ccn5c(=O)[nH]nc5c4cc3-c3ccccc3)cc2)CCC1 + CC(=O)c1c(C)c2cnc(Nc3ccc(N4CCNCC4)cn3)nc2n(C2CCCC2)c1=O [palbociclib] (first compound 0.4 µM, partner dose 0.04 µM)",1.01,61.8,71.6,66.3,59.9,71.8,54.7,70.8
"CS(=O)(=O)c1ccc(C(=O)Nc2ccc(Cl)c(-c3ccccn3)c2)c(Cl)c1 [vismodegib] + Cn1c(=O)n(-c2ccc(C(C)(C)C#N)cc2)c2c3cc(-c4cnc5ccccc5c4)ccc3ncc21 [NVP-BEZ235] (first compound 1 µM, partner dose 0.004 µM)",100,86.3,96.3,122,111,110,86.7,84.2
"NC1(c2ccc(-c3nc4ccn5c(=O)[nH]nc5c4cc3-c3ccccc3)cc2)CCC1 + C=C(c1ccc(C(=O)O)cc1)c1cc2c(cc1C)C(C)(C)CCC2(C)C [Bexarotene] (first compound 0.4 µM, partner dose 2 µM)",91.4,66.5,67.3,68.4,72.4,72.5,76.1,74.4
